Laboratory results taken from publication PMC12402098, “YTHDF3 recognizes DNA N6-methyladenine and recruits ALKBH1 for 6mA removal from genomic DNA” (The EMBO Journal, 2025).
These are yes or no findings as the source states them, for the method shown. In cells and extracts the contact can be indirect. Where a sequence is shown, tags or fusion partners need not be part of it.

Target: T1, YTHDF3-MTbind-Flag (L455M/L461V/V482A/A487T/Y488C/E502D/K504R) (UniProt Q7Z739)
T1 sequence: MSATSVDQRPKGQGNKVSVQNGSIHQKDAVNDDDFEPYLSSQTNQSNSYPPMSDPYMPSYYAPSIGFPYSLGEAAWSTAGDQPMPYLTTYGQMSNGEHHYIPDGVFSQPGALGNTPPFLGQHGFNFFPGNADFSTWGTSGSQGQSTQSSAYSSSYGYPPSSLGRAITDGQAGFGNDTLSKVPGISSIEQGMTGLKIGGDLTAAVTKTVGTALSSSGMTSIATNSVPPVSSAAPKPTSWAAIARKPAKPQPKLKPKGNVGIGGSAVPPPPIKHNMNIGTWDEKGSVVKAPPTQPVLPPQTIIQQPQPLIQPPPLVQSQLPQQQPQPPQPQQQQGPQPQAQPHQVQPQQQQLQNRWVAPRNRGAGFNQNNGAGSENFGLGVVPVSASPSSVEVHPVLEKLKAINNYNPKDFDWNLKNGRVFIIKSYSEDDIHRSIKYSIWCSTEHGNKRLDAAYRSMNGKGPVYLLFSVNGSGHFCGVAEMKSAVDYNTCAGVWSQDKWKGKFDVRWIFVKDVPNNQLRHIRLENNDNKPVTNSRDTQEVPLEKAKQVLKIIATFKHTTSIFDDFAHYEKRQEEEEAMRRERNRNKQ
Assay: co-IP; anti-FLAG or anti-HA antibodies and protein A/G agarose beads; transfected cells (HeLa in Fig. 4A); western blot

B1: ALKBH1 (endogenous) (enzyme, UniProt Q13686 1-389)
chain: MGKMAAAVGSVATLATEPGEDAFRKLFRFYRQSRPGTADLEGVIDFSAAHAARGKGPGAQKVIKSQLNVSSVSEQNAYRAGLQPVSKWQAYGLKGYPGFIFIPNPFLPGYQWHWVKQCLKLYSQKPNVCNLDKHMSKEETQDLWEQSKEFLRYKEATKRRPRSLLEKLRWVTVGYHYNWDSKKYSADHYTPFPSDLGFLSEQVAAACGFEDFRAEAGILNYYRLDSTLGIHVDRSELDHSKPLLSFSFGQSAIFLLGGLQRDEAPTAMFMHSGDIMIMSGFSRLLNHAVPRVLPNPEGEGLPHCLEAPLPAVLPRDSMVEPCSMEDWQVCASYLKTARVNMTVRQVLATDQNFPLEPIEDEKRDISTEGFCHLDDQNSEVKRARINPDS
binding: no binding
